From PubChem BioAssay AID504832 (National Center for Advancing Translational Sciences (NCATS), 2011)
The whole screen tested about 310,000 compounds, of which about 18,000 (5.8%) were called active. The inconclusive results got no clear call from the source; some entries with a clear call stand among them for comparison. The call rests on the fitted dose curve; in most records, active means well fitted inhibition curve with a large enough effect; inconclusive means small, poorly fitted or top-dose-only effect, or another doubt; inactive means no such curve, though single readings can be large or run the other way. No potency is given beside an inconclusive call; the fits are too rough.

Assay: Primary qHTS for delayed death inhibitors of the malarial parasite plastid, 48 hour incubation
Conditions: P. falciparum luciferase growth in erythrocytes; series mostly up to 28.7 µM
Method in brief: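 Luciferase-expressing P. falciparum in infected erythrocytes (2% hematocrit, 0.1% parasitemia final) in RPMI 1640/0.5% Albumax were exposed to compound for 48 hours at 37 C, 5% CO2; growth read as luminescence.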
Potency means the concentration at half of the fitted maximal effect; tags describe the fitted curve by direction and shape.

Row | Structure (SMILES) | Potency
1 | Cc1ccc2cc(C#N)c(N3CCCN(C(=O)c4cnccn4)CC3)nc2c1 | inactive
2 | CCOC(=O)N1CCN(C(=O)C(CC)n2nc(C)c3sc4ccccc4c3c2=O)CC1 (centres undefined) | inconclusive [inhibitor, single point]
3 | O=C(c1ccc(S(=O)(=O)N2CCOCC2)cc1)N(c1cccc(Cl)c1)C1C=CS(=O)(=O)C1 (centres undefined) | inconclusive [inhibitor, single point]
4 | Cc1ccc(-c2cn(C[C@H]3CC[C@@H]([C@@H]4CC[C@H](Cn5cc(-c6ccc(C)cc6)nn5)O4)O3)nn2)cc1 | inactive
5 | CCCCCCSc1ccc(-c2nc3ccccn3c2NCCCC)cc1 | inconclusive [inhibitor, single point]
6 | CCOc1ccc(Oc2ccc(Cl)cc2N)cc1 | inactive
7 | COc1ccc(NC(=O)CN(C)C(=O)c2cccc(S(=O)(=O)Nc3ccc(F)cc3)c2)cc1 | inconclusive [inhibitor, full curve, poor fit]
8 | CCOc1ccc(/C=N/n2c(C3CCCCC3)n[nH]c2=S)cc1 | inconclusive [inhibitor, partial curve]
9 | Fc1cccc(Nc2nc(Cl)nc(Cl)n2)c1 | inactive
10 | CCOC(=O)/C(C#N)=C/c1c(N2CCN(c3ccccc3)CC2)nc2c(C)cccn2c1=O | inconclusive [inhibitor, single point]
11 | Cc1cccc(OCC(O)Cn2c(NCc3cccnc3)nc3c2c(=O)[nH]c(=O)n3C)c1 (centres undefined) | inconclusive [inhibitor, full curve, poor fit]
12 | CC(C)CC(c1nnnn1C1CCCCC1)N1CCN(C(=O)c2ccco2)CC1 (centres undefined) | inconclusive [inhibitor, partial curve]
13 | CCOC(=O)c1cnc(SCc2cccc(C)c2)nc1N | inactive
14 | O=C(O)c1ccc(Nc2ncnc3ccccc23)cc1 | inactive
15 | COc1ccc(S(=O)(=O)N(CC(=O)NCc2ccco2)C2CCCCC2)cc1OC | inconclusive [inhibitor, partial curve, poor fit]
16 | CSc1ccccc1C(=O)C1CCCN(Cc2ccccn2)C1 (centres undefined) | inconclusive [inhibitor, partial curve, poor fit]
17 | C[C@H](NC(=O)c1ccc(Cl)c(S(=O)(=O)N2CCOCC2)c1)c1nc2ccccc2[nH]1 | inconclusive [inhibitor, partial curve]
18 | C/C(Cn1nnc([N+](=O)[O-])n1)=N\NC(=O)c1ccc(C)cc1 | inconclusive [inhibitor, partial curve]
19 | COc1ccccc1CCC(=O)Nc1ccc2c(c1)CN(CCCn1cccn1)CC2 | active: 8.28 µM
20 | COc1ccccc1NS(=O)(=O)c1ccc(C)c(C(=O)NCC2(N(C)C)CCCCC2)c1 | inconclusive [inhibitor, single point]
21 | COc1cccc(-c2cc3nc(-c4ccccc4)cc(N4CCCC(O)C4)n3n2)c1 (centres undefined) | active: 11.7 µM
22 | Cc1ccc(C(=O)NCCc2nnc3ccc(SCC(=O)Nc4ccccc4C)nn23)cc1 | inconclusive [inhibitor, single point]

Row | Structure (SMILES) | Potency
23 | Cc1ccc(N2CC(C(=O)N3CCC(C(=O)Nc4nnc(C(C)C)s4)CC3)CC2=O)cc1 (centres undefined) | inconclusive [inhibitor, single point]
24 | C=CCOc1cccc(C2C(C(=O)c3ccco3)=C(O)C(=O)N2Cc2cccnc2)c1 (centres undefined) | inactive
25 | O=C(NC1CCCCC1)C(c1ccc(F)cc1)N(C(=O)c1cccs1)c1ccc2c(c1)OCO2 (centres undefined) | inactive
26 | Cc1cccc(/C=C/C(=O)c2ccc([N+](=O)[O-])o2)c1 | inconclusive [inhibitor, partial curve, poor fit]
27 | COc1ccccc1OCCn1cc(/C=C(\C#N)C(=O)NCc2cccs2)c2ccccc21 | inconclusive [inhibitor, single point]
28 | O=C(NCCCN1CCOCC1)c1onc(CSc2nc3ccccc3[nH]2)c1C(=O)NCCCN1CCOCC1 | inactive
29 | CCCCN=C(C)c1c(O)c2ccccc2oc1=O | inactive
30 | COc1cc(C(=O)Nc2ccc(S(=O)(=O)N3CCc4ccccc43)cc2)cc(OC)c1OC | inconclusive [inhibitor, single point]
31 | CCOC(N)=O | inactive
32 | CCc1cc2c(=O)n(Cc3ccco3)c(SCC(=O)N3CCCc4ccccc43)nc2s1 | active: 9.28 µM
33 | CCN1CCN(c2ccc(S(=O)(=O)N3CCOCC3)cc2NC(=O)CCC(C)C)CC1 | inconclusive [inhibitor, single point]
34 | O=C(CCN1C(=O)c2ccccc2S1(=O)=O)Nc1ccc(F)c(F)c1F | inconclusive [inhibitor, single point]
35 | CC(C)NC(=O)Nc1cccs1 | inconclusive [inhibitor, single point]
36 | CC(C)(C)C(=O)CN1C(=O)NC(c2ccccc2)(c2ccccc2)C1=O | inconclusive [inhibitor, partial curve, poor fit]
37 | CN(C(=O)COC(=O)c1ccccc1C(=O)N1CCN(c2ccccc2)CC1)c1ccccc1 | inconclusive [inhibitor, single point]
38 | CC(C)OCCCNC(=O)c1c(N)n(/N=C/c2ccccn2)c2nc3ccccc3nc12 | inactive
39 | Cn1c(SC2CCCCC2=O)nnc1-c1ccncc1 (centres undefined) | inactive
40 | Cc1ccc2ncnc(Oc3ncccc3[N+](=O)[O-])c2c1 | inconclusive [inhibitor, single point]
41 | Cc1ccc(C(=O)CSc2nc(-c3ccccc3)ccc2C#N)cc1 | inactive
42 | S=C1NC[C@H](CC2CCCCC2)N1CCCCC1CCCCC1 | inconclusive [inhibitor, single point]
43 | COc1ccc2[nH]c3c(=O)n(CCCCC(=O)N4CCCC4)c(=S)[nH]c3c2c1 | inconclusive [inhibitor, full curve, poor fit]
44 | Cc1ccc(S(=O)(=O)N(CC(=O)NCc2cccnc2)C2CCCCC2)cc1 | inconclusive [inhibitor, partial curve, poor fit]
